# Assay results as given in the supplement of paper PMC11417369.
# The other results are listed elsewhere or left out.
# Tested on: PfSIP2 AP2 domain 1 (GST-tagged)
# Test: gcPBM binding intensity (ln(normalized median fluorescence intensity)); higher = stronger DNA binding
# How it was run: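 Binding intensity is defined as the maximum Masliner-normalised natural-log median intensity across replicate spots for either probe orientation. It was measured on an Agilent 4 × 180k array of primer-extended double-stranded 36-bp intergenic genomic probes and negative controls, to which GST-tagged P. falciparum DNA-binding domains made in E. coli were applied for 1 h in 1× PBS with 1% milk, 0.2 mg/ml BSA, 0.5% salmon testes DNA and 0.03% Triton X-100. Detection was by Alexa488 anti-GST antibody and scanning at 488 nm.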
row,Sequence,gcPBM binding intensity (ln)
1,CCATAAAACTATAATACACACATATAGATTAACATA [CACACA_site7849],7.02
2,AAAATTGGTGAAAATGAAAATATGATTATATGTATA [XGTACX_negctrl_site505],6.73
3,ATAGAATCTGGTAGCTGTACGAGTCGTAGAGTGTAG [XGTACX_site2016],7.3
4,ATATATTAAAAGGATTAGGAAAAAATATGATTTATC [TGCATGCA_negctrl_site405],6.77
5,AAGTAAAAAAAAAAAAGTACATGTTTATATAAATAT [XGTACX_site4741],6.9
6,ATACATATATATAATACACACATAAATGTAACATTT [CACACA_site3518],7.26
7,ATAAATTAACATTAAAGTACATTTTAATAAATATTA [XGTACX_site3647],6.78
8,ATCCCCATAAAAAATACACACAAATATTTATACATA [CACACA_site1001],7.13
9,ATTACGATAGAGAAATGTACATATATATATGTAAGT [XGTACX_site1200],7.11
10,TATTTTATAAATTAATGTACATAAATTATATCTACT [XGTACX_site3625],6.88
11,GATCAAAATTATAGAAGTACTTTATATAAATAAAAT [XGTACX_site8161],7.02
12,TATATATATAAGATTGTGCACATTAAAATGATAGAA [GTGCAC_site9621],9.73
13,TCATAAATACATTTTGCATGTAAAATATAGAATACA [TGCATGCA_site755],6.92
14,TCTATAAAATATAAAAGTACGTATCAATAATTAAAA [XGTACX_site8469],6.93
15,AATATTTTTGTCGTTAGTACATAAAAAATAATAATA [XGTACX_site3074],7.05
16,AATAATAAAGTGAACACACACATATAATATATATAT [CACACA_site4143],8.41
17,CAAACAAACGAACACACACACACACGCAAAAATGAT [CACACA_site7194],7.16
18,ATAATTAAAATGCTCACACACATAAAAAAAAATTAA [CACACA_site2149],6.94
19,ATAATTTTATCATATATATATATATATAAATACTTA [CACACA_negctrl_site743],7.36

row,Sequence,gcPBM binding intensity (ln)
1,ATGCTTTTATGCACACGTACAAAAATATTATATAAT [XGTACX_site5589],7.36
2,AAAAATTGAATTTTTTTTTTTTTTTTGAGAAGGAAA [CACACA_negctrl_site1196],6.8
3,AACAGATAAAAGGGTACACACATATATACAAGTACA [CACACA_site7959],7.13
4,TTATGTAGCTAGCTATAAACTTTTTTTTATTTAAAA [CACACA_negctrl_site1297],6.58
5,TATATAGATATGATAGTGCATTTTTAGAAAACATAA [GTGCAC_site9962],8.69
6,ATATATATATATATATGTACATACTATACAATAATT [XGTACX_site3546],9.52
7,ATTATTATTAAATACACACACATACCTCCATGTTAG [CACACA_site3430],6.79
8,AAATAAAGGAAATAAAAAGAAACCAATTTCGAATAT [CACACA_negctrl_site953],6.92
9,GATATAATTATGTGTACACAATTTTTTTTTTTTTTT [CACACA_site4501],7.45
10,ATATGTATGTATAATCGTACAAAATTTGGCGATCTT [XGTACX_site8698],6.75
11,TTTTTTTTAAAACTATGTACGTAAAAATTGTAGTTT [XGTACX_site2302],7.19
12,TTTATATGTATTAATTGTACACATATAATGTGTTTT [XGTACX_site3064],6.94
13,ATATAGTAAATTGGTAGTACATAAAATGATTTTATG [XGTACX_site4143],6.94
14,AGAACTTTTAATGGATGTACAGTTATTTTATTATTT [XGTACX_site6226],6.79
15,ATGAAGAATTTATATTGTACCCATTTTTATGTAAAT [XGTACX_site2528],7.21
16,AAAAAAAAAACATACACACATACATACATATATATT [CACACA_site949],7.02
17,CGAAAAAGTGATATAGTGCAAAATTTTCATTTCTCT,7.86
18,AAAGGGAATTATGGCTGTACGCATTTTATAAATAGC [XGTACX_site5878],7.2
19,TTGTTATTATATTACGCATGCATCATTTATTTGCAC [TGCATGCA_site525],8.27

row,Sequence,gcPBM binding intensity (ln)
1,TGCTGTATATTTTTCTGTACACATTTATATATTCCA [XGTACX_site6244],7.15
2,TTTTTTTTTCTTCTTTTCAAATTTAAGAAATTATAA [CACACA_negctrl_site18],6.83
3,AAGAATAAGAAGAAGGATCCCCTTCAAAAAAAAAAA [TGCATGCA_negctrl_site525],6.59
4,TATAAATAAAGATATACACACATATAAATATTTTTC [CACACA_site7798],6.87
5,TTGGTCTTTTAAAAAAGTACAAAAAAAAAAAAAAAA [XGTACX_site1665],7.55
6,GATAAATTAAGACACACACACATATATTTATTTATA [CACACA_site7789],7.12
7,AAAAAAGAACGCATAGTGCATATCTAAAAGATTTTT,8.32
8,TAGTATTAGATATATACACACATATATACCTATAGA [CACACA_site7083],6.82
9,ATTTTTTTTTTTATAGTGGATCCACATTTGCCATTT [CACACA_negctrl_site1106],6.95
10,TTACGATCATCAATATGTACATATATATATATATAT [XGTACX_site4301],9.37
11,TATAAAAAAATATTATAATATATATATATATATATA [XGTACX_negctrl_site41],8.86
12,AATATTTATATTTACACACACATAATACATCTATGT [CACACA_site4187],7.06
13,TTTATAAAAATGAACACACACATATAAATATAAATA [CACACA_site7607],7.03
14,TTTTAAATATGAACATGTACATGTAAATTTACATGT [XGTACX_site4573],7.05
15,AATAATATATTTAGGGGTACATAATAATATATTTTA [XGTACX_site8366],7.02
16,AAAAATAGAATAAATACACACCCGTGTAACGGATTT [CACACA_site3372],6.46
17,TTTTAATTTATTAATTGTACATGTATTTTAAGATTA [XGTACX_site8417],6.82
18,TTATTATTAAAAAAAAGTACAGAATTGAATAATACA [XGTACX_site651],7.46
